No constants are given. Whether binding was seen depends on the method and setting. In cells and extracts the contact can be indirect. Some entries that bind do so weakly or less than the wild type. For some assays here: Tags and fused reporters may be left off the sequences shown.

The chains behind the UniProt entries cited, without tags or fusion partners.
UniProt P24863: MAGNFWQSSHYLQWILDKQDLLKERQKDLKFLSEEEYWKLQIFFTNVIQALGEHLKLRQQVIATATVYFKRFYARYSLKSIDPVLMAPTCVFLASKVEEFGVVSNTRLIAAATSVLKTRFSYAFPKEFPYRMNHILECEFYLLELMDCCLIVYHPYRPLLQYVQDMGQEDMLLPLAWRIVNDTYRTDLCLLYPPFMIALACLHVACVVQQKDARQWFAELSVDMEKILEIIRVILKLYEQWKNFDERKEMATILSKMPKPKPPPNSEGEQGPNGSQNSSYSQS
UniProt P49336: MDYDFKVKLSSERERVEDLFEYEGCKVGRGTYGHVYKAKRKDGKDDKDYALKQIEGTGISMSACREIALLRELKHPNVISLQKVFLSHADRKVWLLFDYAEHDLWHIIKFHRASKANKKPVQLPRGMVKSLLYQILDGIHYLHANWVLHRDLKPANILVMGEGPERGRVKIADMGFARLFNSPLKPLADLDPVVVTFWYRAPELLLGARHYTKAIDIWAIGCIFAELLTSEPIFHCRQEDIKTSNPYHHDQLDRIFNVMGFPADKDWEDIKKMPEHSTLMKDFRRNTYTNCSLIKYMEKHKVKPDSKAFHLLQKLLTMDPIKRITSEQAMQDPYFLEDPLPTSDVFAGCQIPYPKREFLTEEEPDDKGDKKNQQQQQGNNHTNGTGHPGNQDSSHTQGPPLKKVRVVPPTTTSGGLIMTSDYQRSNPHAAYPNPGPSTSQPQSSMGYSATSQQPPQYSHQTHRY

For test [1], the target named is T1, HA-Treslin/TICRR-1-671, in vitro translated (human) (UniProt Q7Z2Z1).
T1 sequence: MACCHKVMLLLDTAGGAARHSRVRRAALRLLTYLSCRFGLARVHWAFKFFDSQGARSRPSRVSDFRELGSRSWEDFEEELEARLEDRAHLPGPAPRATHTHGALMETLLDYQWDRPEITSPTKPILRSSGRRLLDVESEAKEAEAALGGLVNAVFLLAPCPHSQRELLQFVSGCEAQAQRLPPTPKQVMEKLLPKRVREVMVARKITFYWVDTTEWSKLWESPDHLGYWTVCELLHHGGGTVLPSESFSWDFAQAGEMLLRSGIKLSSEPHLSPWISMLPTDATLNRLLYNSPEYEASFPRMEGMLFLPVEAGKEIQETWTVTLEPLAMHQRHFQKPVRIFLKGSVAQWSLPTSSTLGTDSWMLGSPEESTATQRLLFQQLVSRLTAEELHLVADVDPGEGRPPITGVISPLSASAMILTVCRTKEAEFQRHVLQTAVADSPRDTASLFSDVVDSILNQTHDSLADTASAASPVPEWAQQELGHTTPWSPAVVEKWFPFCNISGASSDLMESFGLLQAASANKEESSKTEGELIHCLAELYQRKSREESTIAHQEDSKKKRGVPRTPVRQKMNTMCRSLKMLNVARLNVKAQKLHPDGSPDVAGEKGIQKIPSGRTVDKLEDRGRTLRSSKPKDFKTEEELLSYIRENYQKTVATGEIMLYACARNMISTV
Put plainly: co-IP; 35S-labelled MTBP (full length or fragments) and HA-Treslin/TICRR-1-671, each translated in SP6 reticulocyte lysate, mixed; anti-HA IP (control IgG); autoradiography.

The target of test [2] is cyclin C, endogenous (human (endogenous in HeLa and 293T)) (UniProt P24863). Nature of the test: co-IP; antibodies to endogenous MTBP, cyclin C, Cdk8 or TopBP1 (control IgG) on Protein G Dynabeads in native lysates of HeLa Flip-In T-Rex, HeLa-Kyoto or 293T cells, 150 mM NaCl, 0.1% Triton X-100, 2 h at 4°C; unsynchronised or synchronised cells (M, G1, G1/S, S); TopBP1 IP with or without Cdk2-cyclin A and ATP added to the lysate.

In test [3] the target is Cdk8 (cyclin-dependent kinase 8), endogenous (human (endogenous in 293T and HeLa)) (UniProt P49336). The test is described as above.
Test [4] concerns the target Treslin/TICRR (TopBP1-interacting replication stimulating protein/TopBP1-interacting checkpoint and replication regulator), endogenous (human (endogenous in 293T and HeLa)) (UniProt Q7Z2Z1). Nature of the test: co-IP; IP of endogenous Treslin with rabbit anti-Treslin-970-1400 (control IgG) from native lysates of HeLa Flp-In T-Rex lines expressing MTBP-WT or C-terminal deletions; MTBP by immunoblot.

B1: hMTBP, full length, in vitro translated (protein, UniProt Q96DY7 1-904)
chain: MDRYLLLVIWGEGKFPSAASREAEHGPEVSSGEGTENQPDFTAANVYHLLKRSISASINPEDSTFPACSVGGIPGSKKWFFAVQAIYGFYQFCSSDWQEIHFDTEKDKIEDVLQTNIEECLGAVECFEEEDSNSRESLSLADLYEEAAENLHQLSDKLPAPGRAMVDIILLLSDKDPPKLKDYLPTVGALKHLREWYSAKITIAGNHCEINCQKIAEYLSANVVSLEDLRNVIDSKELWRGKIQIWERKFGFEISFPEFCLKGVTLKNFSTSNLNTDFLAKKIIPSKDKNILPKVFHYYGPALEFVQMIKLSDLPSCYMSDIEFELGLTNSTKQNSVLLLEQISSLCSKVGALFVLPCTISNILIPPPNQLSSRKWKEYIAKKPKTISVPDVEVKGECSSYYLLLQGNGNRRCKATLIHSANQINGSFALNLIHGKMKTKTEEAKLSFPFDLLSLPHFSGEQIVQREKQLANVQVLALEECLKRRKLAKQPETVSVAELKSLLVLTRKHFLDYFDAVIPKMILRKMDKIKTFNILNDFSPVEPNSSSLMETNPLEWPERHVLQNLETFEKTKQKMRTGSLPHSSEQLLGHKEGPRDSITLLDAKELLKYFTSDGLPIGDLQPLPIQKGEKTFVLTPELSPGKLQVLPFEKASVCHYHGIEYCLDDRKALERDGGFSELQSRLIRYETQTTCTRESFPVPTVLSPLPSPVVSSDPGSVPDGEVLQNELRTEVSRLKRRSKDLNCLYPRKRLVKSESSESLLSQTTGNSNHYHHHVTSRKPQTERSLPVTCPLVPIPSCETPKLATKTSSGQKSMHESKTSRQIKESRSQKHTRILKEVVTETLKKHSITETHECFTACSQRLFEISKFYLKDLKTSRGLFEEMKKTANNNAVQVIDWVLEKTSKK
modifications: 35S-methionine
For B1, the binding entry in test [1] was “binds”.

B2: MTBP (Mdm2 binding protein), endogenous (protein, UniProt Q96DY7 1-904)
chain: B1 chain
For the molecule B2, the binding result in test [2] and in test [3] was “binds” each time.

B3: MTBP fragment of amino acids M1 to Y513, in vitro translated (domain or fragment, UniProt Q96DY7 1-513)
chain: MDRYLLLVIWGEGKFPSAASREAEHGPEVSSGEGTENQPDFTAANVYHLLKRSISASINPEDSTFPACSVGGIPGSKKWFFAVQAIYGFYQFCSSDWQEIHFDTEKDKIEDVLQTNIEECLGAVECFEEEDSNSRESLSLADLYEEAAENLHQLSDKLPAPGRAMVDIILLLSDKDPPKLKDYLPTVGALKHLREWYSAKITIAGNHCEINCQKIAEYLSANVVSLEDLRNVIDSKELWRGKIQIWERKFGFEISFPEFCLKGVTLKNFSTSNLNTDFLAKKIIPSKDKNILPKVFHYYGPALEFVQMIKLSDLPSCYMSDIEFELGLTNSTKQNSVLLLEQISSLCSKVGALFVLPCTISNILIPPPNQLSSRKWKEYIAKKPKTISVPDVEVKGECSSYYLLLQGNGNRRCKATLIHSANQINGSFALNLIHGKMKTKTEEAKLSFPFDLLSLPHFSGEQIVQREKQLANVQVLALEECLKRRKLAKQPETVSVAELKSLLVLTRKHFLDY
modifications: 35S-methionine
Take B3: in test [1], the binding entry is “binds”.

B4: MTBP-ΔC150 (HeLa Flip-In T-Rex stable line) (domain or fragment, UniProt Q96DY7 1-754)
chain: MDRYLLLVIWGEGKFPSAASREAEHGPEVSSGEGTENQPDFTAANVYHLLKRSISASINPEDSTFPACSVGGIPGSKKWFFAVQAIYGFYQFCSSDWQEIHFDTEKDKIEDVLQTNIEECLGAVECFEEEDSNSRESLSLADLYEEAAENLHQLSDKLPAPGRAMVDIILLLSDKDPPKLKDYLPTVGALKHLREWYSAKITIAGNHCEINCQKIAEYLSANVVSLEDLRNVIDSKELWRGKIQIWERKFGFEISFPEFCLKGVTLKNFSTSNLNTDFLAKKIIPSKDKNILPKVFHYYGPALEFVQMIKLSDLPSCYMSDIEFELGLTNSTKQNSVLLLEQISSLCSKVGALFVLPCTISNILIPPPNQLSSRKWKEYIAKKPKTISVPDVEVKGECSSYYLLLQGNGNRRCKATLIHSANQINGSFALNLIHGKMKTKTEEAKLSFPFDLLSLPHFSGEQIVQREKQLANVQVLALEECLKRRKLAKQPETVSVAELKSLLVLTRKHFLDYFDAVIPKMILRKMDKIKTFNILNDFSPVEPNSSSLMETNPLEWPERHVLQNLETFEKTKQKMRTGSLPHSSEQLLGHKEGPRDSITLLDAKELLKYFTSDGLPIGDLQPLPIQKGEKTFVLTPELSPGKLQVLPFEKASVCHYHGIEYCLDDRKALERDGGFSELQSRLIRYETQTTCTRESFPVPTVLSPLPSPVVSSDPGSVPDGEVLQNELRTEVSRLKRRSKDLNCLYPRKRLVKSE
With B4, the binding entry in test [4] is “binds”.

Source of the values: publication PMC6377148.
